Test results as given in the supplement of paper PMC8813932.
Counter-ions that a name gives are not always drawn. ± gives the standard deviation of the averaged measurements. This is one part of the list. Many values rest on one well or one pass, so single values are uncertain.

Experiments:
Experiment in all cases: log2 surviving fraction relative to plate median (drug vs vehicle, or drug+dl922-947 vs dl922-947 alone); ovarian cancer lines: OVCAR4 is platinum-sensitive while Ov4Cis resists cisplatin and Ov4Carbo carboplatin; higher = more cell survival
Details in all cases: compound concentration: 10 uM, 192 h
OVCAR4 = tested on: OVCAR4
Ov4Carbo = tested on: Ov4Carbo
Ov4Cis = tested on: Ov4Cis
[1] = dl922-947 oncolytic adenovirus co-treatment: MOI 10
[2] = dl922-947 oncolytic adenovirus co-treatment: none

SMILES: CN(C)CC/C=C1/c2ccccc2Sc2ccc(Cl)cc21 [Chlorprothixene]
- log2 surviving fraction (OVCAR4; [1]): 0.282 ± 1.6
- log2 surviving fraction (OVCAR4; [2]): 0.2532 ± 0.0022
- log2 surviving fraction (Ov4Carbo; [1]): -2.72
- log2 surviving fraction (Ov4Carbo; [2]): 0.752
- log2 surviving fraction (Ov4Cis; [1]): -0.765
- log2 surviving fraction (Ov4Cis; [2]): 0.653

SMILES: CCc1nc(N)nc(N)c1-c1ccc(Cl)cc1 [Pyrimethamine]
- log2 surviving fraction (OVCAR4; [1]): -0.588 ± 0.23
- log2 surviving fraction (OVCAR4; [2]): -2.94 ± 2.1
- log2 surviving fraction (Ov4Carbo; [1]): -0.217
- log2 surviving fraction (Ov4Carbo; [2]): -1.08
- log2 surviving fraction (Ov4Cis; [1]): 0.188
- log2 surviving fraction (Ov4Cis; [2]): -1.49

SMILES: O=C(N/N=C/c1ccc([N+](=O)[O-])o1)c1ccc(O)cc1 [Nifuroxazide]
- log2 surviving fraction (OVCAR4; [1]): 0.302 ± 0.16
- log2 surviving fraction (OVCAR4; [2]): 0.226 ± 0.6
- log2 surviving fraction (Ov4Carbo; [1]): 0.743
- log2 surviving fraction (Ov4Carbo; [2]): -0.658
- log2 surviving fraction (Ov4Cis; [1]): 0.428
- log2 surviving fraction (Ov4Cis; [2]): 0.296

SMILES: COc1ccc2[nH]c([S@@+]([O-])Cc3ncc(C)c(OC)c3C)nc2c1 [Esomeprazole magnesium (Nexium)]
- log2 surviving fraction (OVCAR4; [1]): -0.426 ± 1.2
- log2 surviving fraction (OVCAR4; [2]): -0.994 ± 0.34
- log2 surviving fraction (Ov4Carbo; [1]): -0.22
- log2 surviving fraction (Ov4Carbo; [2]): 0.834
- log2 surviving fraction (Ov4Cis; [1]): -1.54
- log2 surviving fraction (Ov4Cis; [2]): -0.469

SMILES: Cc1c(OCC(F)(F)F)ccnc1C[S+]([O-])c1nc2ccccc2[nH]1 (configuration not stated) [Lansoprazole]
- log2 surviving fraction (OVCAR4; [1]): -0.179 ± 0.84
- log2 surviving fraction (OVCAR4; [2]): -0.649 ± 0.12
- log2 surviving fraction (Ov4Carbo; [1]): -0.922
- log2 surviving fraction (Ov4Carbo; [2]): -2.15
- log2 surviving fraction (Ov4Cis; [1]): -0.467
- log2 surviving fraction (Ov4Cis; [2]): -0.404

SMILES: C[C@]12C/C(=C/O)C(=O)C[C@@H]1CC[C@@H]1[C@@H]2CC[C@@]2(C)[C@H]1CC[C@]2(C)O [Oxymetholone]
- log2 surviving fraction (OVCAR4; [1]): 0.144 ± 0.098
- log2 surviving fraction (OVCAR4; [2]): -0.359 ± 0.29
- log2 surviving fraction (Ov4Carbo; [1]): 1.11
- log2 surviving fraction (Ov4Carbo; [2]): -4.28
- log2 surviving fraction (Ov4Cis; [1]): -0.18
- log2 surviving fraction (Ov4Cis; [2]): -0.538

SMILES: CCCSc1nc(N[C@@H]2C[C@H]2c2ccc(F)c(F)c2)c2nnn([C@@H]3C[C@H](OCCO)[C@@H](O)[C@H]3O)c2n1 [Ticagrelor]
- log2 surviving fraction (OVCAR4; [1]): -1.53 ± 0.67
- log2 surviving fraction (OVCAR4; [2]): -0.612 ± 0.23
- log2 surviving fraction (Ov4Carbo; [1]): -3.45
- log2 surviving fraction (Ov4Carbo; [2]): -2.59
- log2 surviving fraction (Ov4Cis; [1]): -1.59
- log2 surviving fraction (Ov4Cis; [2]): -1.13

SMILES: Clc1cccc(Cl)c1NC1=NCCN1 [Clonidine hydrochloride (Catapres)]
- log2 surviving fraction (OVCAR4; [1]): 1.33 ± 0.8
- log2 surviving fraction (OVCAR4; [2]): 0.348 ± 0.23
- log2 surviving fraction (Ov4Carbo; [1]): 0.858
- log2 surviving fraction (Ov4Carbo; [2]): 1.55
- log2 surviving fraction (Ov4Cis; [1]): 0.925
- log2 surviving fraction (Ov4Cis; [2]): 0.711

SMILES: CC(C)(C)c1ccc(C(O)CCCN2CCC(C(O)(c3ccccc3)c3ccccc3)CC2)cc1 (configuration not stated) [Terfenadine]
- log2 surviving fraction (OVCAR4; [1]): -4.9 ± 5.2
- log2 surviving fraction (OVCAR4; [2]): -0.565 ± 0.29
- log2 surviving fraction (Ov4Carbo; [1]): -8.91
- log2 surviving fraction (Ov4Carbo; [2]): -12.1
- log2 surviving fraction (Ov4Cis; [1]): -0.726
- log2 surviving fraction (Ov4Cis; [2]): -0.418

SMILES: O=C1CCc2ccc(OCCCCN3CCN(c4cccc(Cl)c4Cl)CC3)cc2N1 [Aripiprazole (Abilify)]
- log2 surviving fraction (OVCAR4; [1]): 1.21 ± 0.78
- log2 surviving fraction (OVCAR4; [2]): 0.099 ± 0.19
- log2 surviving fraction (Ov4Carbo; [1]): -1.49
- log2 surviving fraction (Ov4Carbo; [2]): 0.531
- log2 surviving fraction (Ov4Cis; [1]): -0.388
- log2 surviving fraction (Ov4Cis; [2]): 0.137

SMILES: CN(C)CCN(Cc1ccccc1)c1ccccn1 [Tripelennamine HCl]
- log2 surviving fraction (OVCAR4; [1]): 0.477 ± 0.22
- log2 surviving fraction (OVCAR4; [2]): 0.322 ± 0.35
- log2 surviving fraction (Ov4Carbo; [1]): 0.708
- log2 surviving fraction (Ov4Carbo; [2]): -0.107
- log2 surviving fraction (Ov4Cis; [1]): -0.204
- log2 surviving fraction (Ov4Cis; [2]): 0.427

SMILES: NCC1(CC(=O)O)CCCCC1 [Gabapentin Hydrochloride]
- log2 surviving fraction (OVCAR4; [1]): -0.559 ± 0.084
- log2 surviving fraction (OVCAR4; [2]): 0.219 ± 0.11
- log2 surviving fraction (Ov4Carbo; [1]): 1.06
- log2 surviving fraction (Ov4Carbo; [2]): 1.47
- log2 surviving fraction (Ov4Cis; [1]): -0.838
- log2 surviving fraction (Ov4Cis; [2]): 0.168

SMILES: Cc1ncc([N+](=O)[O-])n1CCO [Metronidazole (Flagyl)]
- log2 surviving fraction (OVCAR4; [1]): 0.239 ± 0.64
- log2 surviving fraction (OVCAR4; [2]): -0.179 ± 0.26
- log2 surviving fraction (Ov4Carbo; [1]): 0.405
- log2 surviving fraction (Ov4Carbo; [2]): -2.52
- log2 surviving fraction (Ov4Cis; [1]): 0.512
- log2 surviving fraction (Ov4Cis; [2]): -0.0657

SMILES: NC(=O)N1c2ccccc2CC(=O)c2ccccc21 [Oxcarbazepine]
- log2 surviving fraction (OVCAR4; [1]): -0.0745 ± 0.86
- log2 surviving fraction (OVCAR4; [2]): 0.118 ± 0.71
- log2 surviving fraction (Ov4Carbo; [1]): -0.823
- log2 surviving fraction (Ov4Carbo; [2]): -0.0812
- log2 surviving fraction (Ov4Cis; [1]): -0.494
- log2 surviving fraction (Ov4Cis; [2]): -0.122

SMILES: NC1CCN(c2c(F)cc3c(=O)c(C(=O)O)cn(C4CC4)c3c2Cl)C1 (configuration not stated)
- log2 surviving fraction (OVCAR4; [1]): 0.55 ± 0.25
- log2 surviving fraction (OVCAR4; [2]): 0.53 ± 0.2
- log2 surviving fraction (Ov4Carbo; [1]): -0.317
- log2 surviving fraction (Ov4Carbo; [2]): -0.0705
- log2 surviving fraction (Ov4Cis; [1]): 0.268
- log2 surviving fraction (Ov4Cis; [2]): 0.0344

SMILES: CC(=O)OCC(=O)[C@@]1(O)CC[C@H]2[C@@H]3CCC4=CC(=O)C=C[C@]4(C)[C@H]3[C@@H](O)C[C@@]21C [Prednisolone acetate (Omnipred)]
- log2 surviving fraction (OVCAR4; [1]): 2.19 ± 0.47
- log2 surviving fraction (OVCAR4; [2]): 0.765 ± 1.4
- log2 surviving fraction (Ov4Carbo; [1]): 0.685
- log2 surviving fraction (Ov4Carbo; [2]): 0.314
- log2 surviving fraction (Ov4Cis; [1]): 1.49
- log2 surviving fraction (Ov4Cis; [2]): 0.143

SMILES: CC1=C(C(=O)O)N2C(=O)[C@@H](NC(=O)[C@H](N)c3ccccc3)[C@H]2SC1 [Cephalexin (Cefalexin)]
- log2 surviving fraction (OVCAR4; [1]): 0.612 ± 0.15
- log2 surviving fraction (OVCAR4; [2]): 0.218 ± 0.25
- log2 surviving fraction (Ov4Carbo; [1]): 0.322
- log2 surviving fraction (Ov4Carbo; [2]): 0.12
- log2 surviving fraction (Ov4Cis; [1]): 0.0773
- log2 surviving fraction (Ov4Cis; [2]): -0.00182

SMILES: CC1(C)O[C@@H]2C[C@H]3[C@@H]4CCC5=CC(=O)C=C[C@]5(C)[C@H]4[C@@H](O)C[C@]3(C)[C@]2(C(=O)CO)O1 [Desonide]
- log2 surviving fraction (OVCAR4; [1]): 1.14 ± 0.069
- log2 surviving fraction (OVCAR4; [2]): 0.29 ± 0.15
- log2 surviving fraction (Ov4Carbo; [1]): 0.686
- log2 surviving fraction (Ov4Carbo; [2]): 0.34
- log2 surviving fraction (Ov4Cis; [1]): 1.87
- log2 surviving fraction (Ov4Cis; [2]): -0.684

SMILES: O=C(O)c1cccnc1Nc1cccc(C(F)(F)F)c1 [Niflumic acid]
- log2 surviving fraction (OVCAR4; [1]): -1.35 ± 0.14
- log2 surviving fraction (OVCAR4; [2]): -0.475 ± 0.36
- log2 surviving fraction (Ov4Carbo; [1]): 0.216
- log2 surviving fraction (Ov4Carbo; [2]): -0.297
- log2 surviving fraction (Ov4Cis; [1]): -0.162
- log2 surviving fraction (Ov4Cis; [2]): -0.57

SMILES: C=CC1=C(C(=O)O)N2C(=O)[C@@H](NC(=O)/C(=N\O)c3csc(N)n3)[C@H]2SC1 [Cefdinir (Omnicef)]
- log2 surviving fraction (OVCAR4; [1]): 0.171 ± 0.58
- log2 surviving fraction (OVCAR4; [2]): -0.65 ± 0.042
- log2 surviving fraction (Ov4Carbo; [1]): 0.532
- log2 surviving fraction (Ov4Carbo; [2]): 0.547
- log2 surviving fraction (Ov4Cis; [1]): 0.117
- log2 surviving fraction (Ov4Cis; [2]): 0.488

SMILES: Cc1onc(-c2ccccc2)c1-c1ccc(S(N)(=O)=O)cc1 [Bextra (valdecoxib)]
- log2 surviving fraction (OVCAR4; [1]): 0.0156 ± 0.24
- log2 surviving fraction (OVCAR4; [2]): -0.396 ± 0.22
- log2 surviving fraction (Ov4Carbo; [1]): -0.952
- log2 surviving fraction (Ov4Carbo; [2]): 0.544
- log2 surviving fraction (Ov4Cis; [1]): -0.543
- log2 surviving fraction (Ov4Cis; [2]): -0.26

SMILES: CCN[C@@H]1C[C@H](N)[C@@H](O[C@H]2OC(CN)=CC[C@H]2N)[C@H](O)[C@H]1O[C@H]1OC[C@](C)(O)[C@H](NC)[C@H]1O [Netilmicin Sulfate]
- log2 surviving fraction (OVCAR4; [1]): 0.289 ± 0.83
- log2 surviving fraction (OVCAR4; [2]): -0.655 ± 0.67
- log2 surviving fraction (Ov4Carbo; [1]): 0.513
- log2 surviving fraction (Ov4Carbo; [2]): 0.389
- log2 surviving fraction (Ov4Cis; [1]): 0.255
- log2 surviving fraction (Ov4Cis; [2]): 0.473
